Source: article PMC6919601, “Identification of Plasmodium dipeptidyl aminopeptidase allosteric inhibitors by high throughput screening” (PLoS ONE, 2019)
Values joined by “and” are separate entries in the source; they are usually repeats but may differ in a detail not shown here. Identical values can stand only once. Among all 110,000 compounds or so, about 230 (0.21%) showed an effect of 50% or more. Some of the results follow.

target: DPAP1 (Plasmodium falciparum, UniProt Q8IIJ9); assay: primary screen, percent inhibition; read by cleavage of a fluorogenic dipeptide substrate; higher = more effect of the substance; parameters: species or system P. falciparum D10 trophozoite lysates; single well
Sequence (Q8IIJ9 whole entry, looked up): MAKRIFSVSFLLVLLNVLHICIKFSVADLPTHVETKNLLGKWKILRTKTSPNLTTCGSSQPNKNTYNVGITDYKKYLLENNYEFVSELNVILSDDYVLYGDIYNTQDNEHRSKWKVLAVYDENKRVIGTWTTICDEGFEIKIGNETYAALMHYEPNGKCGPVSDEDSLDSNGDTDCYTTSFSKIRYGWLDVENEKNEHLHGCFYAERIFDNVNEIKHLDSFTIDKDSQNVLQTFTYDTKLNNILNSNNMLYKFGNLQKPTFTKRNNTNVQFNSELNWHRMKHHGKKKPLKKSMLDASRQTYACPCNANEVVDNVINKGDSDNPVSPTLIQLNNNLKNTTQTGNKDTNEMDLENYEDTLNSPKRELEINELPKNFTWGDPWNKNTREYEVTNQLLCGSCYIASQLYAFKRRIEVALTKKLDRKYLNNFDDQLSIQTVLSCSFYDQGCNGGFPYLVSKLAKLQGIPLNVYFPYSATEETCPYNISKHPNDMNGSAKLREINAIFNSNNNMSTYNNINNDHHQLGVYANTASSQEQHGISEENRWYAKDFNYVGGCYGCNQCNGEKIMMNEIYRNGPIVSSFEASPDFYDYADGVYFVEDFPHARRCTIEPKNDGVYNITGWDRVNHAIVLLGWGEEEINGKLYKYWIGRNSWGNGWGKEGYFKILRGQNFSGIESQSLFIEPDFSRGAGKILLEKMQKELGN
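Note: 30 min substrate incubation versus DMSO and 10 µM JCP410 controls.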

Structure (SMILES)	% Inhibition @ 10 uM
Cc1ccc(-n2nc3ncccc3c2O)cc1C	-5.5%
COC(=O)Nc1nc2cc3c(cc2s1)OCCO3	-1.91%
O=C1NC(=S)N/C1=C\c1cccc([N+](=O)[O-])c1	3.25%
Cc1cc(Br)ccc1OCC(=O)Nc1ccccc1C#N	2.48%
O=S1(=O)Nc2c(ccc3cccnc23)-c2ccccc21	1.42%
O=c1[nH]c(=O)n(Cc2ccccc2)c2c1C(c1ccccc1Cl)C1=C(O)c3ccccc3C1=N2 (stereo not drawn)	4.08%
Cc1ccc2oc(-c3cc(N)ccc3O)nc2c1	5.66%
Cc1ccc2c(c1)C(=O)c1ccccc1-2	-4.48%
O=c1cccc2n1C[C@H]1C[C@@H]2CN(CC(c2ccccc2)c2ccccc2)C1	-2.48%
COc1cc(C)nc(NS(=O)(=O)c2ccc(C)cc2)n1	2.94%
CN(CCNC(=O)c1cnn2c(C(F)(F)F)cc(-c3ccccc3)nc12)Cc1ccccc1	0.955%
COc1cc(CN2CCN(c3ccc(C(C)=O)cc3)CC2)cc(Br)c1O	-3.8%
Cc1c(C(=O)NCCN2CCOCC2)oc2ccc3c(c12)C(O)CC1(CCCCCC1)O3 (stereo not drawn)	1.63%
CCNC(=O)c1c(NC(=O)c2ccc(C)cc2)sc2c1CCCC2	12%
COCCCNC(=O)CSc1[nH]c(-c2ccc(C)cc2)nc1-c1ccc(C)cc1	-3.39%
CC(=O)NC1=NC(=O)/C(=C\c2ccc(N(C)C)c(Br)c2)S1	-1.65%
COCCCNC(=O)c1c(NC(=O)Cc2coc3ccc(C)cc23)sc2c1CCCC2	-6.04%
CC(=O)c1c(C)oc2ccc(NS(=O)(=O)c3ccc(C)cc3)cc12	0.878%
C=CCc1c(C)nc(-c2ccccc2)nc1Nc1ccc(C(C)=O)cc1	2.58%
Cc1ccc(C)c(OCC(=O)N2CCCCC2)c1	0.54%
OCCNC1Cc2cc(Cl)ccc2Sc2ccccc21 (stereo not drawn)	-9.24%
CCCCNCc1cccn1-c1ccccc1	-1.75%
Cc1cc(C)cc(NC(=O)CN(c2ccc(Cl)cc2)S(C)(=O)=O)c1	-1.43%
CCN(CC)C(=O)Cn1c(=O)n(Cc2ccccc2)c(=O)c2c(C)c(C(=O)N(CC)CC)sc21	4.3%
COc1cc(CNC(=O)C2CCCC2)cc(OC)c1OC	-4.48%

Structure (SMILES)	% Inhibition @ 10 uM
CC(C)(C)c1ccc(C(=O)N[C@@H](Cc2cc(Cl)c(O)c(Cl)c2)C(=O)NC2(C#N)CC2)cc1	0.173%
COc1ccc(-c2nc(CS(=O)CC(=O)NCc3ccc4c(c3)OCO4)c(C)o2)cc1 (stereo not drawn)	0.689%
CCOC(=O)N1CCN(C(=O)c2cc3c(O)nc4ccc(C)cc4c3s2)CC1	14.1%
N#CCCN(Cc1ccccc1)C(=O)CCC(=O)c1ccc(F)cc1	0.238%
O=C1NC(=O)/C(=C\c2cccn2-c2ccc(Br)cc2)N1	-0.178%
C=CCSc1nc2c(c(-c3ccc(Br)cc3)c1C#N)C(=O)CC(C)(C)C2	2.23%
O=C(c1cccnc1)c1conc1C(=O)c1ccc(Br)cc1	91.9%
CCCn1c(=O)c(C(=O)Nc2cccc(Br)c2)c(O)c2ccccc21	0.843%
O=C1CC(N2CCN(c3ccccn3)CC2)C(=O)N1c1cccc(Cl)c1 (stereo not drawn)	-2.07%
COc1ccccc1C(=O)NC1CC(C)(C)Cc2occc21 (stereo not drawn)	6.15%
Cc1ccccc1S(=O)Cc1ccc(C(=O)N2CCc3ccccc3C2)o1 (stereo not drawn)	-1.28%
CCOc1ccc(-n2c(SC(CC)C(=O)N(CC)CC)nc3nnc(C)c-3c2N)cc1 (stereo not drawn)	4.35%
COc1ccc(CNC(=O)C2CCN(S(=O)(=O)c3c(C)noc3C)CC2)cc1	-0.704%
CCOc1ccccc1CNCc1c(C(=O)O)n(Cc2ccccc2F)c2cc(OC)ccc12	-0.517%
Cn1c(=O)c2c(n(C)c1=O)[n+](C)cn2CC(=O)c1ccccc1	-2.86%
Cc1nc2n(C)nc(Nc3ccccc3)[n+]2c2ccccc12	-4.52%
CCOc1ccccc1-c1cn2nc(CC(C)C)sc2n1	5.35%
Cc1cccc(CSC[C@H](NC(=O)c2ccccc2)C(=O)NCC#N)c1	-5.21%
CCOC(=O)c1[nH]c(C#N)c(C(=O)OCC)c1C	4.15%
Clc1cccc(N2CCN(Cc3cc(Br)cs3)CC2)c1	4.04%
COc1cccc(C(C(F)(F)F)P(C)(=O)O)c1 (stereo not drawn)	4.1%
Cc1nc2c(-c3ccc(F)cc3)c(C)nn2c(C)c1CCC(=O)NCCC1=CCCCC1	2.93%
COc1ccc(CN2C(=O)CSC2c2ccc3cccc(O)c3n2)cc1 (stereo not drawn)	-3.95%
CN1CCc2cc(CO)sc2C1	1.77%
N#CCc1ccc(NC(=O)c2ccncc2)cc1	-6.92%

Structure (SMILES)	% Inhibition @ 10 uM
C=CCOc1ccccc1CNc1ccc(C)cc1	1.08%
COc1ccc(N2C(=O)CC(N(CCc3ccccc3)C(C)=O)C2=O)cc1 (stereo not drawn)	-12.1%
NC(=O)C1CCN(C(=O)C2=Cc3sc4c(c3CS2)CCCC4)CC1	0.942%
C/C(=N/O)c1ccc(OCCO)cc1	0.035%
Oc1ccc2ccccc2c1/C=N/c1cccn2cc(-c3ccccc3)nc12	-2.98%
CCCCNc1ncnc2c1cnn2C	2.88%
CC(C)(C)c1ccc2[nH]c3c(c2c1)CCCC3=O	-0.13%
CCOC(=O)C1=C(O)/C(=C/c2cccnc2)N=C1C	-3.41%
COc1ccc(C2c3c(oc4ccccc4c3=O)C(=O)N2c2nnc(C(C)C)s2)cc1 (stereo not drawn)	-4%
COc1ccc(CCN(C(C)=O)C2CC(=O)N(c3ccc(OC)cc3)C2=O)cc1 (stereo not drawn)	5.41%
O=C(/C=C/c1ccccc1)Nc1cccc2ccccc12	1.7%
CCC(=O)OC1(c2ccccc2)CCN(C)C(C)C1 (stereo not drawn)	-2.56%
O=C(CC1CC2CCC1C2)NCc1ccccc1C(F)(F)F (stereo not drawn)	-5.03%
CCCN1CCC(N2C[C@@H]3C[C@H](C2)c2cccc(=O)n2C3)CC1	-1.85%
COc1ccc(NC(=O)CSc2nc(C)cc(O)n2)cc1	-0.231%
Cc1ccc(/C=C/C2=NC(=C\c3ccc(F)cc3)/C(=O)O2)cc1	3.74%
CSC1=NSC2=NC(=O)/C(=C\c3c(C)[nH]c4ccc(C)cc34)C(=N)N12	1.07%
Cc1nn(C(C)C(=O)NCCCOC(C)C)c(=O)c2cc3sccc3n12 (stereo not drawn)	-1.58%
CCN(CC)c1ccc(/C=C2\C(=O)N(c3ccc(C)cc3)N=C2C)cc1	-7.11%
COc1cccc(CN2CCN(C3CCCCC3C)CC2)c1OC (stereo not drawn)	-6.39%
CC1=C(CCN(C)CC(O)c2ccccc2)C(C)(C)CCC1 (stereo not drawn)	2.1%
CCc1nnc(NC(=O)CSc2nnc(CNC(=O)c3cc(OC)c(OC)c(OC)c3)o2)s1	-3.39%
N#CCNC(=O)C1CCCCN1c1cccc(-c2cccc(F)c2F)c1 (stereo not drawn)	0.173%
CCc1ccccc1NC(=O)c1cccs1	-0.197%
Cc1nn2c(C(F)(F)F)cc(-c3ccc(Cl)cc3)nc2c1C(=O)N1CCN(C)CC1	-1.36%

Structure (SMILES)	% Inhibition @ 10 uM
Cc1ccc(S(=O)(=O)c2nc(-c3ccc(F)cc3)oc2S(=O)(=O)C(C)C)cc1	-1.22%
COc1ccc(-c2csc(-c3nc(-c4ccc(OC)cc4)cs3)n2)cc1	-7.01%
Cc1cc(C)nc(SCc2cccc3ccccc23)n1	5.42%
COc1cc2c(cc1OC)C(c1ccccc1Cl)NC(=O)C2 (stereo not drawn)	-0.436%
CCCCCCCOc1ccc(-c2ccc(C(=N)NO)cc2)cc1	1.41%
CCN1CCCC1CNC(=O)C(NC(=O)C1CCC(C)CC1)C(C)C (stereo not drawn)	-4.06%
Clc1ccccc1/C=N/OCc1nc2c3c4c(sc3ncn2n1)CCCCC4	3.43%
CCCCc1ccc(-c2nc(NC(=O)C3C4CCC(O4)C3C(=O)O)sc2C)cc1 (stereo not drawn)	0.76%
Cc1[nH]nc2c1C1(C(=O)N(Cc3ccc(Cl)cc3)c3ccccc31)C(C#N)=C(N)O2 (stereo not drawn)	5.05%
CCN(CC)CCN(C)CC1CCCCC1	1.74%
COC(=O)C1=CN(Cc2ccc(Cl)cc2)C=C(C(=O)OC)C1c1ccc(Br)cc1	3.45%
O=C(COc1ccc(S(=O)(=O)NC2CCCCC2)cc1)Nc1cccc(F)c1	1.88%
COc1ccccc1-c1scc(C(=O)N[C@@H](CC(C)C)C(=O)NCC#N)c1OC	-8.26%
CCCC(=O)NCc1nc2ccccc2n1Cc1ccccc1C	-0.228%
Cc1c(C(c2ccc3ccccc3c2)c2c(C)n(C)n(-c3ccccc3)c2=O)c(=O)n(-c2ccccc2)n1C	7.81%
CC1(C)C(c2ccc(F)cc2)=[N+]([O-])C(C)(C)C(c2ccc(F)cc2)=[N+]1[O-]	-5.74%
CCOc1ccccc1NC(=O)C1=C(C)NC(=O)NC1c1ccccc1F (stereo not drawn)	-0.69%
Cc1ccc(NC(=O)Nc2ccccc2C(C)(C)C)cc1	-5.12%
C=CCN1C(=O)/C(=C\c2ccc(C(=O)O)cc2)C(C(=O)OC)=C1C	0.0538% and -1.6%
COc1cccc(CCN2CCC(CNS(=O)(=O)c3ccc(-c4ccc(O)nn4)s3)CC2)c1	0.92%
CC1=NN(C(=O)c2ccc(COc3ccc(F)cc3)o2)C(O)(C(F)(F)F)C1 (stereo not drawn)	3.21%
Cc1cc(C)c(S(=O)(=O)NCCN2CCN(S(=O)(=O)c3cc(C)c(C)cc3C)CC2)cc1C	-2.03%
CC(C)C[C@H](NC(=O)c1ccc(-c2cnc(Nc3cccnc3)s2)cc1)C(=O)NCCN(CC(C)C)CC(C)C	-3.97%
Cc1cccc(-c2nc(CS(=O)CC(=O)N3CCc4ccccc4C3)c(C)o2)c1 (stereo not drawn)	-1.05%
